SMILES strings stand for the structures. The campaign covered roughly 150,000 compounds. About 540 (0.36%) showed an effect of 50% or more. Some of the results follow.

The test system of this assay is Plasmodium falciparum. Put plainly: Primary screen in NF54 nanoGlo assay, in single point, at 2uM, 72h; a lower Z score goes with more inhibition. The assay is classed as functional, Erythrocyte. The settings on record: timepoint 72 hour.
For the compound `CC[C@H](C)Cc1nc(CCn2nc(C)cc2C)n(CCO)n1`, the % Inhibition (commonly the drop in the measured response relative to a control, in per cent) was -13% and the Z score came out at 1.3.

With `CCC1(C)CCCN(CC2CCCCNC2=O)C1` (stereo unspecified), the “% Inhibition” value is given as -5% and the Z score is given as 0.91.

Consider `CC(C)(C)NC(=O)c1ccc(Cl)c(Cl)c1`, for which the “% Inhibition” value is -9% and the Z score is reported as 1.27.

Take `Cc1ccc(NC(=O)CN2C[C@@H]3C[C@H](C2)[C@H]2CCCC(=O)N2C3)cc1`: the “% Inhibition” value is recorded as 1% and the Z score was -0.11.

As to `Cc1noc(C)c1CN(C)C(=O)[C@H](C)OCC1CC1`, the “% Inhibition” value is given as -5% and the Z score was 0.59.

As to `CCc1n[nH]c(NC(=O)CCc2c(C)noc2C)n1`, the “% Inhibition” value is reported as 16% and the Z score is -1.89.

Regarding `COCc1nc(C)cc(N2CCN(c3ccc(N)nc3)CC2)n1`, the “% Inhibition” value is given as -12% and the Z score was determined as 1.79.

As for `O=C(Nc1nc2c(s1)CN(C(=O)COc1ccccc1)CC2)c1cccs1`, the “% Inhibition” value is listed as -3% and the Z score is recorded as 0.63.

Turning to `Cc1cc(CNC(=O)C2CC2c2ccc3c(c2)OCCO3)no1` (stereo unspecified), the “% Inhibition” value is -8% and the Z score was 0.91.

For `O=C1c2ccccc2C(=O)N1C1CN(C2CCOCC2)C1`, the “% Inhibition” value was determined as 3% and the Z score was -0.32.

Take `c1ccc(C2=NO[C@@H](CN3CCC4(CCCC4)C3)C2)cc1`: the “% Inhibition” value was -4% and the Z score was 0.67.

Turning to `CN=C(NCCCc1ccccc1)NCCCn1cncn1`, the “% Inhibition” value is listed as -9% and the Z score is listed as 0.78.

For the compound `Cc1nn(C)c2nc(N3CCCC[C@@H]3CN3CCCC3)sc12`, the “% Inhibition” value is on record as -6% and the Z score turned out to be 0.54.

On to `CO[C@H]1CN(C(C)C)C[C@@H]1Nc1ccncc1F`, for which the “% Inhibition” value was -1% and the Z score stood at 0.18.

Turning to `CCOC(=O)c1cnn2ccc(NC(=O)c3cccc(C(F)(F)F)c3)cc12`, the “% Inhibition” value was 1% and the Z score is given as -0.15.

Take `CCn1nc(C(=O)Nc2cccc3ccccc23)ccc1=O`: the “% Inhibition” value worked out at 6% and the Z score is -0.83.

As to `CC(=O)c1cc(C(=O)NCc2cccnc2N2CCN(C)CC2)[nH]n1`, the “% Inhibition” value is recorded as -4% and the Z score is 0.41.

As to `CC1CC(C(=O)N2CCCC2c2ncccn2)CC(C)(C)C1` (stereo unspecified), the “% Inhibition” value is -13% and the Z score was 1.54.

For the compound `O=c1n(Cc2ccccc2)nc2n1CC1CCC(C2)N1S(=O)(=O)c1ccc(F)cc1` (stereo unspecified), the “% Inhibition” value is -6% and the Z score is recorded as 0.77.

Take `COc1cccnc1N(C)C(=O)CCCC1CCOCC1`: the “% Inhibition” value is given as -9% and the Z score turned out to be 1.72.

As to `Cc1cc(C)n(-c2cncc(N3CCCN(C)CC3)n2)n1`, the “% Inhibition” value is 4% and the Z score was -0.74.

Consider `O=C(CCc1ccsc1)Nc1ccc2c(c1)CCN2`, for which the “% Inhibition” value is given as -1% and the Z score is 0.17.

For `O=C1C[C@H](c2cccnc2)c2cnn(C3CCCC3)c2N1`, the “% Inhibition” value is recorded as 38% and the Z score is on record as -1.45.

Take `CCNc1cc(CNC(=O)N2CCO[C@@H](Cn3cccn3)C2)ccn1`: the “% Inhibition” value is listed as -1% and the Z score was determined as 0.14.

As to `O=C(NCc1ccncc1)c1nnc(Cc2cccc(F)c2)o1`, the “% Inhibition” value is given as -4% and the Z score is listed as 0.84.

Turning to `O=S(=O)(CC1CCC1)NCc1ccno1`, the “% Inhibition” value is -14% and the Z score worked out at 2.75.

For the compound `O=C(Cn1cnc2ccccc21)Nc1c(F)cccc1F`, the “% Inhibition” value is recorded as -4% and the Z score is listed as 0.36.

As for `O=C(O)[C@@H]1CC2(CCN(C(=O)CCCCc3ccccc3)CC2)CN1`, the “% Inhibition” value was -10% and the Z score amounted to 1.84.

Take `CCn1cc(-c2noc(CNC(=O)c3ccc(S(=O)(=O)N4CCOCC4)cc3)n2)cn1`: the “% Inhibition” value is recorded as -18% and the Z score stood at 2.26.

Turning to `Cn1c([C@H]2CCN(Cc3ccccc3)C2)nc2ccccc21`, the “% Inhibition” value was -10% and the Z score is on record as 1.55.

Take `CC[C@@H](CNS(N)(=O)=O)Oc1cccc(F)c1`: the “% Inhibition” value is -8% and the Z score stood at 0.84.

Regarding `O=C(NCC1CN(C(=O)Nc2ccccc2)C2CCN1C2)c1cccc(OC(F)F)c1` (stereo unspecified), the “% Inhibition” value worked out at 5% and the Z score is -0.68.

For `O=C1NCC(C(=O)N[C@@]23CCC[C@@H]2C3)c2ccccc21` (stereo partly specified), the “% Inhibition” value came to 2% and the Z score was -0.25.

On to `OC1CC(C2CCCCC2)N(C[C@H](O)c2ccc(Cl)cc2)C1` (stereo partly specified), for which the “% Inhibition” value is on record as 14% and the Z score was -1.64.

On to `N#Cc1ccc(S(=O)(=O)N2CCCOCCNC(=O)[C@@H]3CCC[C@@H]32)cc1`, for which the “% Inhibition” value is listed as 3% and the Z score was -0.49.

On to `CN(Cc1ccncc1)Cc1csnn1`, for which the “% Inhibition” value was found to be 1% and the Z score is recorded as -0.07.

With `Cc1nnc([C@@H]2CCCN2Cc2cccs2)[nH]1`, the “% Inhibition” value is recorded as -9% and the Z score turned out to be 1.08.

Turning to `CC1(C)COCCN1C(=O)c1ccc(Cl)c(S(=O)(=O)N2CCCCCC2)c1`, the “% Inhibition” value is -13% and the Z score is 2.46.

On to `O=S1(=O)CC[C@H](Nc2nc(-c3ccccc3)no2)C1`, for which the “% Inhibition” value was -5% and the Z score is reported as 0.92.

Consider `Cc1nccc(NC(=O)Cc2c(C)noc2C)c1Cl`, for which the “% Inhibition” value is reported as 26% and the Z score was -2.93.

`Cc1noc2ncnc(NCCc3cnn(-c4ccccc4)c3)c12`: the “% Inhibition” value is listed as -20% and the Z score is 1.88.

Consider `COc1ccc(F)cc1CN1CC[C@]2(O)CCN(C(=O)C3CCCC3)C[C@@H]2C1`, for which the “% Inhibition” value is listed as -12% and the Z score came out at 1.63.

Consider `CC1=C[C@@H](CNc2ccccn2)[C@H](C(C)C)C[C@H]1Cc1nnc(-c2cncn2C)o1`, for which the “% Inhibition” value is reported as -10% and the Z score came out at 1.53.
